Publication PMC4336329 (PLoS ONE, 2015)
Hit rate of the full screen: of about 310,000 compounds, about 2,200 (0.71%) showed an effect of 50% or more. The effect is printed as a negative number. Some of the results follow. Where a SMILES comes first, the peptide text is derived from it. [ ]: non-standard residue; d: D form. The star is where a group is joined. ξ: configuration not given here. Cbz = O=C(OCc1ccccc1)*; ξP = O=C(O)C1CCCN1

molecular target: human ether-à-go-go-related gene (hERG) potassium channel (human, UniProt Q12809); assay: primary screen, population patch clamp on CHO cells stably expressing hERG
Sequence (Q12809 whole entry, looked up): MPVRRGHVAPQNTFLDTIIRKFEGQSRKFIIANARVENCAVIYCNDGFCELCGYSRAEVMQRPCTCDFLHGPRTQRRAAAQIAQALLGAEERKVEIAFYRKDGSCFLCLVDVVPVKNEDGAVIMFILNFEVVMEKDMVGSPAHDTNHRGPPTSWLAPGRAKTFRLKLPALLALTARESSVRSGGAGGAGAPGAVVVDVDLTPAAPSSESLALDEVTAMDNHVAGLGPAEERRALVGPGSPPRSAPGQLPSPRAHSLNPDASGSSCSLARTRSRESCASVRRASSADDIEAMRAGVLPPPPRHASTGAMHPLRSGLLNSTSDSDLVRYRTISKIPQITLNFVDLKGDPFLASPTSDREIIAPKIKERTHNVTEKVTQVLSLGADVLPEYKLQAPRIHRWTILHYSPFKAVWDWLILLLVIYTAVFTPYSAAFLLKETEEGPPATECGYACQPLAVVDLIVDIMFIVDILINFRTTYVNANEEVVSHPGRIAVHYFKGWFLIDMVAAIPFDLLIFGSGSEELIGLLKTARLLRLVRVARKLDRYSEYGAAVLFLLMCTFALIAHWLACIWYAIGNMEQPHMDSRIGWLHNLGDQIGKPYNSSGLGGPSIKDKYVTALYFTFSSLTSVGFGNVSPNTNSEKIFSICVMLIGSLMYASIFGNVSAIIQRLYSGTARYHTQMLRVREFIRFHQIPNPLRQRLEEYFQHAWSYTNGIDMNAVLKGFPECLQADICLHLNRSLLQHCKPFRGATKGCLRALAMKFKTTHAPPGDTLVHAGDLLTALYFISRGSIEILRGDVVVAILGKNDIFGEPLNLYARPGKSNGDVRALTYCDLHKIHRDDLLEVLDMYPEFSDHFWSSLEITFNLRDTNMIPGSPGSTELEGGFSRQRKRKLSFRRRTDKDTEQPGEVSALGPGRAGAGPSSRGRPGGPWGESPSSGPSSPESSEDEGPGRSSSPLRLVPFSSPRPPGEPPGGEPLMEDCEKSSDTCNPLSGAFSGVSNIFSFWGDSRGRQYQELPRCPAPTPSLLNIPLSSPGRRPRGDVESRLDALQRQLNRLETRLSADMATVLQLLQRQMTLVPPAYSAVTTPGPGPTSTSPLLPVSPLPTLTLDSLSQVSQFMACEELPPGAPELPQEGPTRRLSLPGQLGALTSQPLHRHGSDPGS

Structure (SMILES) | hERG current change (%, negative = inhibition) at 1uM
CCOc1cc(N2CCOCC2)c(OCC)cc1NC(=O)CSc1cccc[n+]1[O-] | 14.3%
Cl.c1ccc2c(NCC3CCCO3)nc(N3CCCCC3)nc2c1 (centres unmarked) | -49.3%
COc1cccc(NC(=O)C2CCN(Cc3cnn(-c4ccccc4)c3-n3cccc3)CC2)c1 | -3.74%
CCOC(=O)C(NC(C)=O)C(OC(C)=O)c1cccc([N+](=O)[O-])c1 (centres unmarked) | 9.64%
c1ccc(-c2cc3c(N4CCN(c5ncccn5)CC4)ncnc3s2)cc1 | 18%
CCOC(=O)C1CCN(Cc2c(O)c3ccccc3oc2=O)CC1 | 8.86%
O=C(CCN1C(=O)C2CCCCC2C1=O)Nc1nc(-c2ccc(F)c(F)c2)cs1 (centres unmarked) | 2.03%
Cl.O=C(c1coc2ccc(O)c(CN3CCOCC3)c12)C1CC1 | 10.9%
CCc1ccc(N(CC(=O)NC)S(C)(=O)=O)cc1 | 10.9%
COC(=O)CNC(=O)C1CCCN1C(=O)CNC(=O)OCc1ccccc1 (stereo not drawn) (Cbz-Gly-[ξP]-Gly-OMe) | 16%
COc1cccc(NC(=O)NCCN2CCCCC2)c1 | 4.59%
CC(C)C(=O)Nc1nc2cc3c(cc2s1)OCO3 | 12.6%
Cc1cc2cc(CNC(=O)c3ccc(S(=O)(=O)N(C)C)cc3)ccc2n1C | 0.0644%
O=C(CCN1C(=O)/C(=C/c2ccccc2F)SC1=S)Nc1ccccn1 | 1.86%
O=C(C1COc2ccccc2O1)N1CCN(c2ccc(F)cc2)CC1 (centres unmarked) | -9.29%
COc1cc2[nH]c(=O)n(CCC(=O)N3CCN(c4cc(Cl)ccc4C)CC3)c(=O)c2cc1OC | 12.1%
Cc1cc(C)c[n+](CC(=O)c2c(C)cc(C)c([N+](=O)[O-])c2C)c1.[Br-] | -52.7%
CC(C)CCNc1nc2c(c(=O)[nH]c(=O)n2C)n1CC(O)COC(C)C (centres unmarked) | -0.456%
CC(C)CC(=O)OCc1cn(-c2ccccc2)nn1 | -7%
CC1CCC(NC(=O)CCN2C(=O)C3C4C=CC(C4)C3C2=O)CC1 (centres unmarked) | 8.06%
CCNC(=S)NS(=O)(=O)c1ccc(F)cc1 | 16.6%
O=C(O)CCCN=C1NC2(CCCC2)Cc2ccccc21 | -3.41%
CCOC(=O)C1CCCN(C(=O)c2ccc(CS(=O)(=O)c3ccc(C)cc3)o2)C1 (centres unmarked) | -2.34%

Structure (SMILES) | hERG current change (%, negative = inhibition) at 1uM
COC(=O)c1cnn(-c2nc(-c3ccccc3)cs2)c1N | 2.6%
Cc1nc(N2CCCCC2)c2sc(=S)n(C)c2n1 | 3.96%
Cn1ccnc1SCCNC(=O)CCc1nnc(CCc2ccccc2)o1 | 4.57%
O=C(CN1CCN(S(=O)(=O)c2cc(Cl)ccc2Cl)CC1)Nc1ccc2c(c1)OCCO2 | 8.28%
COc1ccc(Nc2ncnc3c2oc2ccccc23)cc1 | 4%
O=C(CCCCCNC(=O)c1ccccc1)N/N=C/c1ccco1 | 7.05%
O=C(CN1C(=O)COc2ccccc21)NCCCN1CCc2ccccc2C1 | 0.908%
COc1ccc(C(=O)C2CCCN(C(=O)CCC3=NNC(=O)CC3)C2)c(C)c1 (centres unmarked) | -5.76%
COc1ccccc1-n1c(N)cc(=O)nc1SCC(=O)Nc1cc(C)on1 | 16.4%
CCc1c(C)nc2ncnn2c1N1CCC(C(=O)Nc2ccccc2)CC1 | -18%
Fc1ccc(-c2n[nH]c(=S)n2Cc2ccccc2)cc1 | 17.1%
Fc1cccc(F)c1/C=C/c1ccc2ccccc2n1 | 1.89%
CCCc1cc2c(cc1NC(=O)c1ccc(Br)cc1)OCO2 | 5.51%
Cc1cc(C)c(NC(=O)CSc2nc3c(c(=O)n2C)SC(C)C3)c(C)c1 (centres unmarked) | 6.65%
Cc1cnc(CNC(=O)c2ccc3oc(Cc4ccc(Cl)cc4)nc3c2)cn1 | 2.28%
Cc1onc(C(=O)NCc2cccs2)c1[N+](=O)[O-] | 10.9%
CC(=O)Nc1ccc(OCc2cccc([N+](=O)[O-])c2)cc1 | 6.96%
CCOC(=O)c1cnc2ccc(C)cc2c1Sc1ccccc1 | 4.9%
O=C(c1ccc(S(=O)(=O)N2CCCCC2)cc1)N(c1ccccn1)C1CCCCC1 | 3.42%
COc1ccccc1CCNC(C)CCc1ccc(O)cc1 (centres unmarked) | -10.8%
O=C(CN1C(=O)CSC1=O)Nc1ccc2c(c1)OCCO2 | 8.19%
O=C1c2cnc3ncnn3c2CC2c3ccccc3CCN12 (centres unmarked) | -6.65%
Cc1ccc([N+](=O)[O-])cc1N=C(c1cccc([N+](=O)[O-])c1)N1CCOCC1 | 7.11%

Structure (SMILES) | hERG current change (%, negative = inhibition) at 1uM
CC(=O)Nc1ccc(/C(C)=N\NC(=O)c2ccc(-c3ccccc3)cc2)cc1 | -1.89%
CC1CN(C(=O)CCC(=O)NC2CCCCC2)c2ccccc2S1 (centres unmarked) | 3.02%
Cn1c(=O)c2c(ncn2CC(=O)Nc2nnc(Cc3ccccc3)s2)n(C)c1=O | 19.8%
Cc1cccc(NC(=S)NCc2ccccc2)c1C | 12.8%
CCN(CC(=O)Nc1cc(Cl)ccc1C)C(=O)c1ccc2c(=O)n3c(nc2c1)CCC3 | 14.9%
Cc1cccc(C(=O)NCC(=O)OCC(=O)N2CCc3ccccc32)c1 | 10.4%
Cc1nc2cc(NCc3nc4ccccc4n3Cc3ccccc3)ccc2n1C | -61.7%
COc1ccc(C(=O)NNC(=O)c2cc3cc(OC)ccc3oc2=O)cc1 | 5.76%
CC(C(=O)NC1CCCCC1)N1CCN(C)CC1.O=C(O)C(=O)O (centres unmarked) | 10.9%
CC(NC(=O)c1cnccn1)c1ccc(S(N)(=O)=O)cc1 (centres unmarked) | 11.8%
CNC(=O)N(O)C1N(/N=C/c2ccc(C)cc2)C(=S)SC1(C)C (centres unmarked) | 17.7%
CC(=O)c1c(C)[nH]c(C(=O)Nc2ccc(C)c(S(=O)(=O)Nc3ccc(C)cc3C)c2)c1C | 5.9%
CCOc1ccc(C)cc1S(=O)(=O)Nc1cccnc1 | 8.35%
COc1ccc(C(=O)OCC[N+]2(C)CCCCC2)cc1.[I-] | 11.5%
O=C1Nc2c(c(=O)[nH]c(=O)n2-c2ccccc2)C1(Nc1ncccn1)C(F)(F)F (centres unmarked) | 6.13%
COc1ccc(C)cc1S(=O)(=O)N1CCCC(N2CCOCC2)C1 (centres unmarked) | 12.1%
CCc1ccc(CCC(=O)Nc2ncc(Cc3ccccc3Cl)s2)o1 | 18.1%
Cc1ccc(CN2CCN(/N=C/c3ccc(N(C)C)cc3)CC2)cc1 | 8.09%
CC(C)c1nccn1S(=O)(=O)c1cc([N+](=O)[O-])ccc1Cl | 9.9%
[O-]/C(=C(\C(=S)Nc1ccccc1F)[n+]1ccccc1)c1ccc(OC(F)F)cc1 | 6.05%
COC(=O)C(NS(=O)(=O)c1ccc(C)cc1)c1ccccc1 (centres unmarked) | 5.94%
COc1cc(N/N=C(\C)c2ccc(O)c(C)c2)nc(-c2ccccc2)n1 | -17.8%
CC(C)c1ccc(NC(=O)CSc2n[nH]c(=O)n2Cc2ccco2)cc1 | 1.77%

Structure (SMILES) | hERG current change (%, negative = inhibition) at 1uM
FC(F)(F)c1ccc(CSc2nccn2-c2ccccc2)cc1 | 10.1%
C=CCn1c(COc2ccc(F)cc2)nnc1SCC(=O)c1c[nH]c2c(CC)cccc12 | 12.4%
Cc1cc(C)c(NC(=O)NC(=O)c2ccc(F)cc2)c(C)n1 | 11.1%
CC(C)N1C[C@@]23C=C[C@@H](O2)C(C(=O)OCc2ccccc2)[C@H]3C1=O (some centres unmarked) | 9.59%
CC(C)Oc1ccc(/C=N/NC(=O)C(CSCc2ccccc2)NC(=O)c2ccc([N+](=O)[O-])cc2)cc1 (centres unmarked) | 12.8%
CCCNC(=O)Cn1cnc2sc(C(=O)N3CCN(CCC)CC3)c(C)c2c1=O | 7.59%
O=C1OC2(O)C3C4C=CC(C4)C3C(=O)N2c2ccccc21 (centres unmarked) | 11.6%
Cc1occc1C(=O)Nc1sccc1C(N)=O | 0.783%
CCC(C)[C@H]1CNCCN1CCc1cccc(F)c1 (some centres unmarked) | 16.3%
O=C(CNC(=O)c1ccco1)Nc1ccncc1 | 4.53%
CC(C(=O)NCc1ccc2c(c1)OCO2)c1ccc([N+](=O)[O-])cc1 (centres unmarked) | 2.86%
Cc1ccccc1-n1nc(C(=O)O)c(C)c(C#N)c1=O | 8.71%
CCOC(=O)c1ccc(NC(=O)COc2cc(=O)n(CC)c3ccccc23)cc1 | 15.6%
Cc1cccc(N(C(=O)CCC(=O)Nc2ccccn2)C(C(=O)NC(C)C)c2ccc(O)cc2)c1 (centres unmarked) | 10.6%
O=C(O)/C(=C\c1ccc(-c2ccccc2[N+](=O)[O-])o1)c1ccccc1 | 15.7%
Cc1ccc2c(C)c(C(=O)N(C)C(C)c3ccncn3)oc2c1C (centres unmarked) | 11%
Fc1ccc(CNc2cnccn2)cc1 | 12.8%
COc1ccc(Cc2nnc3c4cnn(C)c4ncn23)cc1 | 2.92%
Cc1cc(C)c2c(CC(=O)N3CCCC3)coc2c1 | 12.5%
COc1cc(C(=O)Nc2ccccc2C(=O)NCc2cccnc2)cc(OC)c1OC | 12.2%
